# According to the supplement of paper PMC8728848:
# Some of the results follow.
# B1: LecB PA7 (Pseudomonas aeruginosa) (protein)
# chain: MATQGVFTLPANTRFGVTAFANSSATQTVKVLVNNETAATFTGQSTNNAVIGSQVLNSGGGGKVQIQVSVNGRSSDLVSAQVILANELNVALVGSEDSTDNDYNDAVVVINWPLG
# Key:
# Assay in all cases: glycan array binding signal (z-score within array); higher = stronger binding
# Conditions in all cases: glycan notation: IUPAC condensed, linker removed
# [1] = target: Neu5Ac(a2-8)Neu5Ac
# In short: (§1)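 The binding signal is a Z-score computed within each array. Data were drawn from 3228 arrays in the Consortium for Functional Glycomics database, restricted to those with a known protein sequence. Scores were averaged over arrays of the same protein sequence at different concentrations or buffers, and over linkers, and negative values can be taken as non-binding.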
# [2] = target: Neu5Ac(a2-8)Neu5Ac(a2-3)Gal(b1-3)GalNAc(b1-4)[Neu5Ac(a2-3)]Gal(b1-4)Glc
# In short: as §1
# [3] = target: Neu5Ac(a2-8)Neu5Ac(a2-3)Gal(b1-3)GalNAc(b1-4)[Neu5Ac(a2-8)Neu5Ac(a2-3)]Gal(b1-4)Glc
# In short: as §1
# [4] = target: Neu5Ac(a2-8)Neu5Ac(a2-3)Gal(b1-4)Glc
# In short: as §1
# [5] = target: Neu5Ac(a2-8)Neu5Ac(a2-3)Gal(b1-4)GlcNAc
# In short: as §1
# [6] = target: Neu5Ac(a2-8)Neu5Ac(a2-3)[Gal(b1-3)GalNAc(b1-4)]Gal(b1-4)Glc
# In short: as §1
# [7] = target: Neu5Ac(a2-8)Neu5Ac(a2-3)[GalNAc(b1-4)]Gal(b1-4)Glc
# In short: as §1
# [8] = target: Neu5Ac(a2-8)Neu5Ac(a2-8)Neu5Ac
# In short: as §1
# [9] = target: Neu5Ac(a2-8)Neu5Ac(a2-8)Neu5Ac(a2-3)Gal(b1-4)Glc
# In short: as §1
# [10] = target: Neu5Ac(a2-8)Neu5Ac(a2-8)Neu5Ac(a2-3)[Gal(b1-3)GalNAc(b1-4)]Gal(b1-4)Glc
# In short: as §1
# [11] = target: Neu5Ac(a2-8)Neu5Ac(a2-8)Neu5Ac(a2-3)[GalNAc(b1-4)]Gal(b1-4)Glc
# In short: as §1
# [12] = target: Neu5Ac(a2-8)Neu5Ac(a2-8)Neu5Ac(a2-8)Neu5Ac(a2-3)[GalNAc(b1-4)]Gal(b1-4)Glc
# In short: as §1
# [13] = target: Neu5Ac(a2-8)Neu5Gc(a2-3)Gal(b1-4)GlcNAc
# In short: as §1
# [14] = target: Neu5Ac(b2-6)Gal(b1-4)GlcNAc
# In short: as §1
# [15] = target: Neu5Ac(b2-6)GalNAc
# In short: as §1
# [16] = target: Neu5Ac9Ac(a2-3)Gal(b1-3)GlcNAc
# In short: as §1
# [17] = target: Neu5Ac9Ac(a2-3)Gal(b1-4)GlcNAc
# In short: as §1
# [18] = target: Neu5Ac9Ac(a2-6)Gal(b1-4)GlcNAc
# In short: as §1
# [19] = target: Neu5Gc(a2-3)Gal(b1-3)GlcNAc
# In short: as §1
# [20] = target: Neu5Gc(a2-3)Gal(b1-3)[Fuc(a1-4)]GlcNAc
# In short: as §1
# [21] = target: Neu5Gc(a2-3)Gal(b1-4)Glc
# In short: as §1
# [22] = target: Neu5Gc(a2-3)Gal(b1-4)GlcNAc
# In short: as §1
# [23] = target: Neu5Gc(a2-3)Gal(b1-4)GlcNAc(b1-3)Gal(b1-4)GlcNAc(b1-2)Man(a1-3)[Neu5Gc(a2-3)Gal(b1-4)GlcNAc(b1-3)Gal(b1-4)GlcNAc(b1-2)Man(a1-6)]Man(b1-4)GlcNAc(b1-4)GlcNAc
# In short: as §1
# [24] = target: Neu5Gc(a2-3)Gal(b1-4)[Fuc(a1-3)]GlcNAc
# In short: as §1
# [25] = target: Neu5Gc(a2-6)Gal(b1-4)GlcNAc
# In short: as §1
# [26] = target: Neu5Gc(a2-6)GalNAc
# In short: as §1
# [27] = target: Neu5Gc(a2-8)Neu5Ac(a2-3)Gal(b1-4)GlcNAc
# In short: as §1
# [28] = target: Neu5Gc(a2-8)Neu5Gc(a2-3)Gal(b1-4)GlcNAc
# In short: as §1
# [29] = target: Neu5Gc(a2-8)Neu5Gc(a2-3)Gal(b1-4)GlcNAc(b1-3)Gal(b1-4)GlcNAc
# In short: as §1
# [30] = target: Neu5Gc(a2-8)Neu5Gc(a2-6)Gal(b1-4)GlcNAc
# In short: as §1
# [31] = target: Neu5Gc(b2-6)Gal(b1-4)GlcNAc
# In short: as §1
binder,measurement,setting,value
B1,glycan array binding signal (z-score),[1],-0.513
same,glycan array binding signal (z-score),[2],-0.51
same,glycan array binding signal (z-score),[3],-0.508
same,glycan array binding signal (z-score),[4],-0.512
same,glycan array binding signal (z-score),[5],-0.511
same,glycan array binding signal (z-score),[6],-0.508
same,glycan array binding signal (z-score),[7],-0.483
same,glycan array binding signal (z-score),[8],-0.505
same,glycan array binding signal (z-score),[9],-0.481
same,glycan array binding signal (z-score),[10],-0.509
same,glycan array binding signal (z-score),[11],-0.497
same,glycan array binding signal (z-score),[12],-0.491
same,glycan array binding signal (z-score),[13],-0.516
same,glycan array binding signal (z-score),[14],-0.51
same,glycan array binding signal (z-score),[15],-0.503
same,glycan array binding signal (z-score),[16],-0.517
same,glycan array binding signal (z-score),[17],-0.503
same,glycan array binding signal (z-score),[18],-0.502
same,glycan array binding signal (z-score),[19],-0.501
same,glycan array binding signal (z-score),[20],2.03
same,glycan array binding signal (z-score),[21],-0.449
same,glycan array binding signal (z-score),[22],-0.497
same,glycan array binding signal (z-score),[23],-0.49
same,glycan array binding signal (z-score),[24],0.247
same,glycan array binding signal (z-score),[25],-0.505
same,glycan array binding signal (z-score),[26],-0.508
same,glycan array binding signal (z-score),[27],-0.513
same,glycan array binding signal (z-score),[28],-0.504
same,glycan array binding signal (z-score),[29],-0.511
same,glycan array binding signal (z-score),[30],-0.507
same,glycan array binding signal (z-score),[31],-0.51
